Data reported in PubChem BioAssay AID624296 (National Center for Advancing Translational Sciences (NCATS), 2012).
Among all 350,000 compounds or so, about 9,900 (2.8%) were called active. Inconclusive results, whose numbers are uncertain, are shown with a selection of clear calls. The call rests on the fitted dose curve; in most records, active means well fitted activation curve with a large enough effect; inconclusive means small, poorly fitted or top-dose-only effect; inactive means no such curve, though single readings can be large or run the other way. No potency is given beside an inconclusive call; the fits are too rough.

Assay: A quantitative high throughput screen for small molecules that induce DNA re-replication in MCF 10a normal breast cells. Further: nearly all actives have a fitted effect of over 50% in size. On activity, positive = re-replication: % of control where 0% means no effect.
Settings: MCF 10A DNA re-replication, Hoechst nuclear intensity, 48 h; activity, positive = re-replication: at 46.1 µM (top of the series)
Potency means the concentration at half of the fitted maximal effect; tags describe the fitted curve by direction and shape.

| Compound | Potency | activity, positive = re-replication |
| --- | --- | --- |
| Cc1cc(C)c2nc(N3CCCN(C(=O)c4ccco4)CC3)c(C#N)cc2c1 | inconclusive [activator, single point] | – |
| O=C(N=c1ccn(-c2nc3ccccc3nc2NS(=O)(=O)c2ccccc2)cc1)c1cccs1 | inconclusive [activator, partial curve, poor fit] | – |
| CC12CCC(O)CC1=CCC1C2CCC2(C)C1CCC21CCC(=O)O1 (stereo unspecified) | inconclusive [activator, full curve, poor fit] | – |
| Cc1cccc2cc3c(N)c(C#N)sc3nc12 | inconclusive [activator, single point] | – |
| COC(=O)c1cc(NS(=O)(=O)c2ccc(N3CCC(C)CC3)c([N+](=O)[O-])c2)cc(C(=O)OC)c1 | inconclusive [activator, single point] | – |
| COc1cc2c(C(=O)N3CCN(c4ccccc4C)CC3)c(C)oc2cc1Br | – | inactive: 11.5% |
| CC1CCN(S(=O)(=O)c2ccc(-c3nnc(SCc4cccnc4)o3)cc2)CC1 | inconclusive [activator, partial curve] | – |
| CCn1c(-c2ccccc2)c(C(=O)CC#N)c2ccccc21 | inconclusive [activator, single point] | – |
| COc1ccc(S(=O)(=O)Nc2ccc(S(=O)(=O)N3CCOCC3)cc2)cc1C | inconclusive [activator, full curve, poor fit] | – |
| CCN(CC)CCn1nc(C)nc1-c1ccccc1O | – | inactive: 0.178% |
| COc1ccccc1C(c1nnnn1CCc1ccccc1)N1CCCCCC1 (stereo unspecified) | inconclusive [activator, partial curve, poor fit] | – |
| CCOc1ccc(C(=O)Nc2ccc(N3CCN(S(C)(=O)=O)CC3)cc2)cc1[N+](=O)[O-] | inconclusive [activator, partial curve, poor fit] | – |
| COc1ccc(CC(=O)Nc2nccs2)cc1OC | inconclusive [activator, single point] | – |
| Cc1ccc2[nH]c(CN3CCN(C)C(CCO)C3)c(C)c2c1 (stereo unspecified) | inconclusive [activator, partial curve, poor fit] | – |
| O=C(CCCOc1ccccc1)N1CCN(S(=O)(=O)c2ccccc2)CC1 | – | inactive: 0.833% |
| CCCS(=O)(=O)N1CCC(C(=O)NC2CCCC(C)C2C)CC1 (stereo unspecified) | inconclusive [activator, full curve, poor fit] | – |
| O=C(Nc1ccccn1)c1ccc(CN(c2ccccc2)S(=O)(=O)c2ccccc2)cc1 | inconclusive [activator, partial curve, poor fit] | – |
| Cc1ccc(OCc2cc(C(=O)N(CCO)Cc3cccs3)no2)cc1C | inconclusive [activator, single point] | – |
| CC(=O)n1cc([C@@H]2C=C(C(=O)Nc3ccccc3)O[C@H](OCc3ccc(CO)cc3)C2)c2ccccc21 | inconclusive [activator, single point] | – |
| O=C(Nc1ccc2c(c1)OCO2)NC1(C(F)(F)F)Oc2ccccc2O1 | inconclusive [activator, partial curve, poor fit] | – |
| CN(C)CCCNC(=O)C[C@H]1C[C@H](C(=O)N2CCCCC2)[C@@]2(C)c3[nH]c4cc(CCC(=O)N(C)C)ccc4c3CCN2C1=O | inconclusive [activator, full curve, poor fit] | – |

| Compound | Potency | activity, positive = re-replication |
| --- | --- | --- |
| Cc1ccc(NC(=O)c2cccs2)cc1NC(=O)c1cccc(F)c1 | inconclusive [activator, single point] | – |
| CCCCCCOC(=O)C(C#N)c1nc2ccccc2nc1N1CCN(CC)CC1 (stereo unspecified) | inconclusive [activator, partial curve, poor fit] | – |
| CCCn1c(=O)c(C(=O)Nc2cc(C)ccn2)c(O)c2ccccc21 | inconclusive [activator, partial curve, poor fit] | – |
| COCCn1c(SCc2nc3scc(-c4ccc(Cl)cc4)c3c(=O)[nH]2)nnc1-c1cccc(C)c1 | inconclusive [activator, single point] | – |
| CC(C)C(NS(=O)(=O)c1cccc2nsnc12)C(=O)Nc1nc2ccc(Cl)cc2s1 (stereo unspecified) | – | inactive: -5.62% |
| C/C(O)=C(/C#N)c1nc2ccccc2[nH]1 | – | inactive: 2.38% |
| CC1CCCN(c2nc3c(c(=O)[nH]c(=O)n3C)n2CCSc2nc3ccccc3o2)C1 (stereo unspecified) | – | inactive: 18% |
| O=C(CSc1nc(N2CCCCC2)nc(N2CCCCC2)n1)N1CCN(c2ccccc2)CC1 | – | inactive: 1.93% |
| O=C1N=C(N2CCN(c3ccccc3)CC2)SC1Cc1ccccc1 (stereo unspecified) | – | inactive: -6.61% |
| NC(=S)NN=C1c2ccccc2-c2cc(Br)ccc21 | – | inactive: 20.8% |
| Cc1nn(Cc2c(Cl)cccc2Cl)c(C)c1NC(=O)c1sc2ccccc2c1Cl | active: 10 µM | – |
| O=C(NCCCn1ccnc1)c1cc2c(s1)CCCC2 | – | inconclusive: -31.2% [activator] |
| COC(=O)c1ccc(N2C(=O)CC(Sc3n[nH]c(C)n3)C2=O)cc1 (stereo unspecified) | inconclusive [activator, partial curve, poor fit] | – |
| COc1cccc(C(=O)N2CCn3c2nc2ccccc23)c1 | inconclusive [activator, single point] | – |
| S=C(NN=Cc1ccccn1)N(Cc1ccccn1)Cc1ccccn1 | active: 13 µM | – |
| O=C(N/N=C/c1ccc(O)cc1)c1cc(C23CC4CC(CC(C4)C2)C3)[nH]n1 | inconclusive [activator, partial curve, poor fit] | – |
| CCn1c(SCc2ccc(Cl)cc2)nc2nc3c(cc2c1=O)CCCC3 | inconclusive [activator, single point] | – |
| COc1ccc(N/N=C(/N=Nc2nc(C)cc(=O)[nH]2)c2ccccc2)cc1 | inconclusive [activator, partial curve, poor fit] | – |
| O=c1[nH]c(CSc2nc(-c3ccccc3)cs2)nc2ccccc12 | – | inactive: 9.92% |
| O=C(CN1CCN(C(=S)NC2CCCC2)CC1)Nc1ccc(Oc2ccccc2)cc1 | inconclusive [activator, full curve, poor fit] | – |
